Measured values published in PubChem BioAssay AID686979 (National Center for Advancing Translational Sciences (NCATS), 2013).
Where “and” joins values, the source holds several entries; their conditions need not be identical. Identical values can stand only once. About 50,000 (12%) of roughly 420,000 compounds were called active. Inconclusive results, whose numbers are uncertain, are shown with a selection of clear calls. The call rests on the fitted dose curve; in most records, active means well fitted inhibition curve with a large enough effect; inconclusive means small, poorly fitted or top-dose-only effect; inactive means flat fitted curve, though single readings scatter. Potencies of inconclusive entries are doubtful fits and often do not repeat.

Experiment: qHTS for Inhibitors of human tyrosyl-DNA phosphodiesterase 1 (TDP1): qHTS in cells in presence of CPT; further: nearly all actives have a fitted effect of over 55% in size
Details: chicken DT40 Tdp1-/-;hTDP1 cells + 20 nM CPT, ATP luminescence, 48 h; activity change, negative = growth inhibition: at 46.2 µM (top of the series) unless noted
In short: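 Chicken DT40 Tdp1-/- cells stably complemented with human TDP1 were seeded at 400 cells/well in medium containing 20 nM camptothecin, exposed to pin-transferred compounds, and grown at 37 °C for at least 48 hr. Viability was read as ATP luminescence.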
On the % scale 0 is the no-effect control and ±100 the full control effect; potency means the concentration at half of the fitted maximal effect; tags describe the fitted curve by direction and shape.

Row | Compound | Potency | activity change, negative = growth inhibition
1 | COc1ccc(-c2ccc(CCC(=O)O)n2CC(=O)Nc2cccc(Cl)c2C)cc1 | inactive | –
2 | N#CN=c1snc(-c2ccccc2Cl)n1-c1ccc(F)cc1 | inconclusive: 22.4 µM [inhibitor, single point] | –
3 | CCc1ccc(S(=O)(=O)NCc2ccc(N3CCN(C)CC3)cc2)cc1 | inconclusive: 9.2 µM [inhibitor, partial curve] | –
4 | CCOc1ccc(NCc2nnc(SCc3ccc(Cl)cc3)n2-c2ccccc2)cc1 | inconclusive: 18.4 µM [inhibitor, partial curve] | –
5 | Cc1ccc(Cn2c(CCNc3nc(-c4ccc(Cl)c([N+](=O)[O-])c4)cs3)nc3cc(Cl)c(Cl)cc32)cc1 | inconclusive: 29.1 µM [inhibitor, single point] | –
6 | CCCCNC(=O)C1(C)CCCCN1C(=O)c1ccc2sccc2c1 (configuration not stated) | inconclusive: 25.9 µM [inhibitor, single point] | –
7 | CC(C)NC(=S)N1CCn2c(nc3ccccc32)C1 | inactive | –
8 | C=C(C)[C@H]1CC=C(C)/C(=N/NC(=O)CNc2ccccc2OC)C1 | inconclusive: 25.9 µM [inhibitor, partial curve] | –
9 | COc1ccccc1-c1noc(-c2ccc(NCc3cccnc3)c([N+](=O)[O-])c2)n1 | inconclusive: 2.59 µM [inhibitor, full curve] | –
10 | COc1ccccc1CNc1ncc(-c2ccccc2)n1C | active: 25.9 µM | –
11 | C[C@H]1CN([C@@H](C)CO)S(=O)(=O)c2ccc(Br)cc2O[C@H]1CN(C)C(=O)NC1CCCCC1 | inconclusive: 23.1 µM [inhibitor, single point] | –
12 | CC(C)(C)n1nnnc1C(c1cccnc1)N1CCN(c2cccc(C(F)(F)F)c2)CC1 (configuration not stated) | active: 18.4 µM | –
13 | COc1ccccc1CNCC(=O)Nc1ccc(N(C)C)cc1 | inconclusive: 29.1 µM [inhibitor, single point] | –
14 | Cc1ccccc1-c1cccc([C@@H]2C[C@H]3[C@H](CON3C)CN2S(=O)(=O)c2ccccc2C)c1 | inconclusive: 29.1 µM [inhibitor, single point] | –
15 | Fc1ccccc1C1c2[nH]c3ccccc3c2CCN1Cc1ccoc1 (configuration not stated) | inconclusive: 20.6 µM [inhibitor, single point] | –
16 | CCOC(=O)C1=CCN(S(=O)(=O)c2ccccc2C)C1c1cccc(C)c1 (configuration not stated) | inconclusive: 23.1 µM [inhibitor, single point] | –
17 | Cc1cccc(C)c1OCc1nc2ccccc2[nH]1 | inconclusive: 23.1 µM [inhibitor, single point] | –
18 | Cc1ccc(NC(=O)CCN2C(=O)c3ccccc3C2=O)cc1 | inactive | –
19 | O=C1c2ccccc2-c2onc3ccc(NCc4ccco4)c1c23 | inconclusive: 25.9 µM [inhibitor, single point] | –
20 | Cc1ccc(NC(=O)COc2ccc(C(=O)c3ccccc3)cc2)c(O)c1 | inconclusive: 29.1 µM [inhibitor, single point] | –
21 | COc1ccc(N2CCN(C(=O)c3cc4c(s3)CCCCC4)CC2)cc1 | active: 20.6 µM | –
22 | COc1cccc(N2CCN(C(=O)c3ccc4nc(N5CCCCC5)sc4c3)CC2)c1 | inconclusive: 8.2 µM [inhibitor, partial curve] | –
23 | CCCCn1cc(S(=O)(=O)c2ccc(CC)cc2)c(=O)c2cc(F)c(N3CCOCC3)cc21 | inconclusive: 29.1 µM [inhibitor, single point] | –
24 | CCc1nc2sc3c(=O)[nH]cnc3c2c2c1CSC(C)(C)C2 | inconclusive: 29.1 µM [inhibitor, single point] | –

Row | Compound | Potency | activity change, negative = growth inhibition
25 | Cc1ccccc1Nc1c(-c2ccc(Cl)s2)nc2ccccn12 | inactive | –
26 | CC1(C)CC(=O)C=C(c2ccc(-c3ccc(S(C)(=O)=O)cc3)cc2)C1=O | active: 20.6 µM | –
27 | CCOc1ncccc1C(=O)Nc1cc(S(=O)(=O)N2CCCCC2)ccc1C | – | inconclusive: -30.2% [inhibitor]
28 | O=C(NC1CCCCCCC1)c1ccc(Br)o1 | inactive | –
29 | Cc1cc(C)cc(NC(=O)C(=O)NCC(c2cccnc2)N2CCN(c3ccccc3)CC2)c1 (configuration not stated) | active: 20.6 µM | –
30 | Cc1ccc(S(=O)(=O)NCCC(=O)NNC(=O)c2ccccc2O)cc1C | inconclusive: 25.9 µM [inhibitor, single point] | –
31 | CC(C)C[C@@H]1O[C@H](CCc2ccccc2)CC2=C1C(=O)OC(C)(C)O2 | inconclusive: 20.6 µM [inhibitor, single point] and inconclusive: 23.1 µM [inhibitor, single point] | –
32 | Cc1ccc(OCC(=O)Nc2ccc3oc(=O)ccc3c2)cc1C | inactive | –
33 | CN1CCN(C(c2cccnc2)c2ccc3cccnc3c2O)CC1 (configuration not stated) | inconclusive: 20.6 µM [inhibitor, single point] | –
34 | O=C(c1cc(-c2ccc(Br)cc2)on1)N1CCOCC1 | inactive | –
35 | O=Nc1c(O)n(Cc2ccc(Cl)cc2)c2ccccc12 | inactive | –
36 | O=C(CNC1CCCC1)Nc1ccc(N2CCCCCC2)cc1 | inconclusive: 18.4 µM [inhibitor, single point] | –
37 | COc1ccc(C)cc1NC(=O)COC(=O)c1c(-c2ccccc2)noc1C | active: 23.1 µM | –
38 | CCCN1CC(CSC)C[C@H]2c3cccc4[nH]cc(c34)C[C@H]21 (some centres not stated) | inactive | –
39 | Cc1ccc(C)c(NC(=S)NCc2ccccc2)c1 | inconclusive: 8.2 µM [inhibitor, single point] | –
40 | CCC(C)(C)NC(=O)C(C(C)C)N(CC1CCCO1)C(=O)CNS(=O)(=O)c1ccc(F)cc1 (configuration not stated) | inactive | –
41 | Cc1cc(OCc2cc(C(=O)N3CCC(Oc4cccnc4)CC3)no2)cc(C)c1Cl | active: 13 µM | –
42 | CCCCc1nc2ccccc2c(NC(=O)CN(CC)CC)c1CCC | inconclusive: 23.1 µM [inhibitor, single point] | –
43 | CC(Nc1nc(N2CCN(CCO)CC2)nc2ccccc12)c1ccccc1 (configuration not stated) | inactive | –
44 | CN1CCN(C(=O)CCCN2C(=O)/C(=C/c3cccc(Br)c3)SC2=S)CC1 | inactive | –
45 | CCNC(=S)N1CCC(C(N)=O)CC1 | inactive | –
46 | COc1ccc(NC(=O)C(C)Sc2cc(-c3ccccc3)nc(C)n2)cc1Cl (configuration not stated) | active: 20.6 µM | –
47 | COc1ccc(-c2cc(C(=O)NCCc3ccc(OC)c(OC)c3)c3ccccc3n2)cc1 | active: 18.4 µM | –
48 | CN(c1ccccc1)c1nc(C#N)nc(N2CCOCC2)n1 | active: 12.6 µM | –

Row | Compound | Potency | activity change, negative = growth inhibition
49 | CN(CC(=O)Nc1cccc(F)c1)C(=O)c1ccc(-c2cccc(C(F)(F)F)c2)o1 | inconclusive: 25.9 µM [inhibitor, single point] | –
50 | CCCc1ccc(S(=O)(=O)N2CCN(C(C)C(=O)NCc3ccccc3)CC2)cc1 (configuration not stated) | inconclusive: 16.4 µM [inhibitor, single point] | –
51 | Cc1c(Cl)cccc1NC(=S)NCCc1ccccn1 | inactive | –
52 | CN1CCN(C(=O)c2cnn(-c3ccccc3)c2NC(=O)c2ccc([N+](=O)[O-])cc2)CC1 | inactive | –
53 | CCc1nn2c(=O)cc(COC(=O)c3ccc(NC(=O)C4CCCCC4)cc3)nc2s1 | inconclusive: 18.4 µM [inhibitor, single point] | –
54 | CCC1CCc2nc3sc(C(=O)Nc4cccc(C(F)(F)F)c4)c(N)c3cc2C1 (configuration not stated) | inconclusive: 20.6 µM [inhibitor, partial curve] | –
55 | Cc1ccc(C)c(OCCC(=O)OCC(=O)NC(=O)NC2CCCCC2)c1 | inconclusive: 20.6 µM [inhibitor, single point] | –
56 | OC(CN1CCN(c2ccccc2)CC1)c1c[nH]c2ccccc12 (configuration not stated) | inconclusive: 18.4 µM [inhibitor, single point] | –
57 | Cc1ccc(S(=O)(=O)N2CCCN(C(=O)c3ccc(-n4nccc4C)cc3)CC2)cc1 | inconclusive: 29.1 µM [inhibitor, single point] | –
58 | COc1ccc(-c2noc(-c3ccc(NC4CCCCC4)c([N+](=O)[O-])c3)n2)cc1 | inactive | –
59 | O=C(CSC(=S)N1CCCCC1)c1ccccc1 | inconclusive: 20.6 µM [inhibitor, single point] | –
60 | O=C(c1ccco1)N1CCN(CC(O)COc2ccc3oc4ccccc4c3c2)CC1 (configuration not stated) | active: 18.4 µM | –
61 | CN1C(=O)c2ccccc2Sc2ccc(NC(=O)NC3CC3)cc21 | inconclusive: 32.6 µM [inhibitor, single point] | –
62 | COc1ccc(CCNC(=O)CC2SC(N)=NC2=O)cc1OC (configuration not stated) | inconclusive: 29.1 µM [inhibitor, single point] | –
63 | CCOC(=O)C1CCCN(C/C=C/c2ccccc2)C1 (configuration not stated) | inactive | –
64 | CCn1c2ccccc2c2cc(NC(=O)CSc3nnc(-c4cccc(C)c4)o3)ccc21 | inconclusive: 29.1 µM [inhibitor, single point] | –
65 | O=C(COc1ccc(F)cc1)Nc1ccccc1OCc1cc(=O)n2ccccc2n1 | inactive | –
66 | N#Cc1ccc(C(C(=O)NCc2ccccc2)n2c(=O)c(-c3ccco3)nc3ccccc32)cc1 (configuration not stated) | active: 20.6 µM | –
67 | COc1cc(CN2CCCC(n3cc(C(=O)N4CCCCC4)nn3)C2)cc(OC)c1 (configuration not stated) | inconclusive: 23.1 µM [inhibitor, single point] | –
68 | COc1ccc(CCNC(=O)C2CC(c3cc(C(F)(F)F)cc(C(F)(F)F)c3)=NO2)cc1 (configuration not stated) | inconclusive: 29.1 µM [inhibitor, single point] | –
69 | O=C(CCn1c(=O)c2cccn2c2cccnc21)NCc1ccccc1F | inactive | –
70 | CCOc1ccccc1NC(=O)C1CCN(c2nc(-c3ccc(OC)cc3)no2)CC1 | inconclusive: 29.1 µM [inhibitor, single point] | –
71 | CCOC(=O)c1cn(CC)c2cc(N3CCSCC3)c(F)cc2c1=O | inactive | –
72 | Cc1ccc(CS(=O)Cc2ccc(C(=O)NCCCc3ccccc3)o2)cc1 (configuration not stated) | inconclusive: 18.4 µM [inhibitor, single point] | –
